Laboratory results published in PubChem BioAssay AID2675 (National Center for Advancing Translational Sciences (NCATS), 2010).
The whole screen tested about 280,000 compounds, of which about 100 (0.036%) were called active. Inconclusive results, whose numbers are uncertain, are shown with a selection of clear calls. The call rests on the fitted dose curve; in most records, active means well fitted inhibition curve with a large enough effect in the signal ratio, with a control signal flat (not every such curve was filed as active); inconclusive means small, poorly fitted or top-dose-only effect, or effect the other way, or a change in a side signal; inactive means no such curve, though single readings can be large or run the other way; the % refers to the signal ratio. Where the call is inconclusive, the potency comes from a doubtful curve fit. A note “side channel” means that the fit belongs to a control or component signal, not to the main read-out.

Target: Muscleblind-like protein 1 (Homo sapiens) (UniProt Q9NR56)
Assay: qHTS Assay for Inhibitors of MBNL1-poly(CUG) RNA binding
Details: TR-FRET MBNL1-His/biotin-(CUG)12 binding, 665/545 ratio; series mostly up to 57.5 µM
Method in brief: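 MBNL1-His + Biotin-(CUG)12, cpd titration 92 nM–58 uM; Tb anti-His Ab 0.055 ng/ul, SA-XL665 5 nM (final); 60 min RT; ratiometric 665/545 nm, Ex 340 nm; normalized to buffer and full-complex controls.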
Potency means the concentration at half of the fitted maximal effect; tags describe the fitted curve by direction and shape or compound fluorescence and quenching.

UniProt Q9NR56, sequence (Q9NR56 whole entry, looked up): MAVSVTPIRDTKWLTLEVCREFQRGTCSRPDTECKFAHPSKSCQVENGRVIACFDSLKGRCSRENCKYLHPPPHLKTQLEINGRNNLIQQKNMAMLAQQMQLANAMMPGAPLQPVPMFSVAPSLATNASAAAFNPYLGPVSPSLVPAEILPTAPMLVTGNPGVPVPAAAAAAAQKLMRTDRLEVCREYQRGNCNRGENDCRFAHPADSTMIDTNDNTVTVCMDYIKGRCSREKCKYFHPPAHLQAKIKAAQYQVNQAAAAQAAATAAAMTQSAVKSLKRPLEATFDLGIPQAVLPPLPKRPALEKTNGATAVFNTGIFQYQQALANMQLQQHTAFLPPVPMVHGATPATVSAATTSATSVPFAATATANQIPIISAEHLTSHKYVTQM

Compound | Potency
COc1cccc(/C=C2/C(=O)NN(c3ccc(Br)cc3)C2=O)c1O | inconclusive: 3.55 µM [quencher, side channel, full curve]
Cc1oc2cc3oc(=O)c(CC(=O)N[C@H](C(=O)N[C@@H](C(=O)O)c4ccccc4)C(C)C)c(C)c3cc2c1C | inactive
C=CCn1cccc(/C=C/C(=O)c2ccc(C(C)(C)C)cc2)c1=S | inactive
CCCCOc1ccc(C(=O)N/C(=C/C=C/c2ccccc2)C(=O)O)cc1 | inactive
C/C(CC(=O)Nc1cccc2c1CCCC2)=N\NC(=O)c1ccccc1N | inactive
CC(/C=C/c1ccccc1)=N\NC(=O)CSc1ccccn1 | inconclusive: 35.5 µM [quencher, side channel, partial curve]
COc1ccc(CNC(=O)C2CCN(S(=O)(=O)c3cccc4nsnc34)CC2)cc1 | inconclusive: 14.1 µM [quencher, side channel, partial curve]
Cc1ccc2nsnc2c1NC(=O)CCl | inconclusive: 22.4 µM [quencher, side channel, partial curve]
CC(=O)NCCNS(=O)(=O)c1ccc(C)c([N+](=O)[O-])c1 | inconclusive: 20 µM [quencher, side channel, single point]
CSc1ccc(/C=C/C(=O)NC(=O)c2ccccc2O)cc1 | inactive
Cc1ccc(NC(=S)Nc2ccc(Cl)c(Cl)c2)c(OC(F)F)c1 | inconclusive: 0.0316 µM [fluorescent, side channel, full curve]
CN(C)C(=O)COc1ccc2ccc(=O)oc2c1 | inactive
CC(=O)N1N=C(c2cccc([N+](=O)[O-])c2)OC1c1ccccc1Cl (stereo not given) | inconclusive: 22.4 µM [quencher, side channel, partial curve]
COc1ccc2c(c1)c(=O)oc1cc(OCC(=O)N3CCCC(C)C3)ccc12 (stereo not given) | inactive
C/C(Cl)=C\Cn1c(O)c(N=NC(N)=S)c2ccccc21 | inconclusive: 11.2 µM [quencher, side channel, partial curve]
COc1cc(NC(=O)/C=C/c2ccccc2[N+](=O)[O-])cc(OC)c1 | inconclusive: 17.8 µM [quencher, partial curve]
O=C(NCCN1CCCCC1)Nc1cccc(Cl)c1Cl | inactive
CC(C)C(C(=O)OCC(=O)c1cccc([N+](=O)[O-])c1)N1C(=O)[C@@H]2[C@H]3CC[C@H](C3)[C@@H]2C1=O (stereo not given in full) | inconclusive: 14.1 µM [quencher, side channel, partial curve]
COc1ccc2ccccc2c1CN1CCN(C(=O)c2ccco2)CC1 | inactive
C=CCOn1c(-n2nc(C)cc2C)nc2ccccc2c1=O | inactive

Compound | Potency
O=[N+]([O-])c1c(NCCO)cc(N2CCCCCC2)c2nonc12 | inconclusive: 15.8 µM [quencher, side channel, partial curve]
Cc1cccc(NC(=O)Cn2c(=O)n(C)c3ccccc32)c1 | inconclusive: 3.16 µM [quencher, side channel, partial curve]
COc1ccc(CCNC(=O)CSc2ccsc2[N+](=O)[O-])cc1OC | inconclusive: 12.6 µM [quencher, side channel, partial curve]
COC(=O)CNC(=O)C1CCC(CNS(=O)(=O)c2cccc3nsnc23)CC1 (stereo not given) | inconclusive: 14.1 µM [quencher, partial curve]
CN(C)c1cccc(C(=O)OC(C(=O)Nc2ccc(Cl)cc2C(F)(F)F)c2ccccc2)c1 (stereo not given) | inconclusive: 3.55 µM [fluorescent, side channel, partial curve]
Cc1ccc(N=Cc2c(O)c3ccccc3n(C)c2=O)cc1 | inconclusive: 10 µM [quencher, side channel, partial curve]
Fc1ccc(CSc2ncnc3sc4c(c23)CCCC4)cc1 | inactive
COc1ccccc1C(=O)N/C(=C/c1ccc(Br)cc1)C(=O)NCC(=O)O | inconclusive: 1 µM [quencher, side channel, full curve]
Cc1cccc(C)c1-n1c(C)nn(Cc2ccc([N+](=O)[O-])cc2)c1=O | inconclusive: 14.1 µM [quencher, side channel, partial curve]
O=C(CCCCl)NC(=S)Nc1cc(C(F)(F)F)ccc1N1CCOCC1 | inactive
O=C(NCc1ccco1)C1CCCN(S(=O)(=O)c2cccc3nsnc23)C1 (stereo not given) | inconclusive: 5.01 µM [quencher, side channel, partial curve]
COc1cc(/C=C/c2cccc[n+]2C)ccc1OCC(=O)Nc1ccccc1 | inconclusive: 28.2 µM [quencher, side channel, partial curve]
CCCn1c(N)c(Sc2ccc([N+](=O)[O-])cc2)c(=O)n(CCC)c1=O | inconclusive: 28.2 µM [quencher, side channel, partial curve]
CC1(C)CC(=O)CC(=O)/C1=N\Nc1c(Cl)cc(Cl)cc1Cl | inconclusive: 22.4 µM [quencher, side channel, single point]
O=C(NCc1ccco1)c1ccc(COc2ccccc2[N+](=O)[O-])o1 | inconclusive: 17.8 µM [quencher, side channel, partial curve]
Cc1ccccc1C(=O)N1CCN(c2ccc(NC(=O)c3ccco3)cc2Cl)CC1 | inactive
Cc1ccc(CS(=O)(=O)Cc2ccc(C(=O)NCc3cccnc3)o2)cc1 | inconclusive: 39.8 µM [fluorescent, side channel, single point]
CCOC(=O)C1=C(O)/C(=C\c2sccc2C)N=C1C | inconclusive: 39.8 µM [quencher, side channel, single point]
CCC(=O)Nc1ccc2c(c1)C(=O)c1ccccc1C2=O | inconclusive: 2.82 µM [quencher, side channel, full curve]
C#CCOCCOCCOCCNc1nc(N2CCN(C(=O)C(Cc3ccc(O)cc3)n3cc(C(N)CC(C)C)nn3)CC2)nc(N2CCN(C(=O)C(Cc3cc4ccccc4[nH]3)n3cc(C(N)Cc4ccc(O)cc4)nn3)CC2)n1 (stereo not given) | inconclusive: 100 µM [inhibitor, single point]
